# Laboratory results taken from the supplement of paper PMC10338343.
# ± gives the standard deviation. This is a selection; strong and weak results do not stand in their true shares.
# System: MIWI (PIWIL1) piRISC loaded with L1MC piRNA (30 nt)
# Assay: pre-steady-state target cleavage rate (min^-1); MIWI and MILI are mouse PIWI proteins and EfPiwi is from a freshwater sponge; tags in brackets are library labels; higher = faster piRNA-guided slicing of the target
# Settings: guide: L1MC piRNA 5'p-UAACUAAAUACUAUGCAAGCUGUAGGUCCU; auxiliary factor: 500 nM mouse GTSF1
# Procedure: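 Cleave-'n-Seq: a library of target RNAs (target site embedded in constant flanks, ACAGCATTCCGCGTTAGTGATATCCG... 5' flank; DNA-blocked outside the site) at 0.1 nM was incubated with 1 nM active mouse MILI or MIWI piRISC (synthetic 5'-monophosphorylated piRNA guide) with or without 500 nM mouse GTSF1 at 33 °C for 1 min to 16 h. Uncleaved targets were sequenced and normalised to non-target controls, and the pooled three trials were fitted to a burst-and-steady-state model to give the pre-steady-state cleavage rate (min^-1; k3 is constrained to at most 1e-4). Sequence is the target site only; target names encode pairing extent (gX:gY) and contiguous / 1-mismatch / 2-mismatch / bulge geometry. Fits with R² ≤ 0 are excluded.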
row,Sequence,pre-steady-state target cleavage rate
1,UCCUGGAUGUGCUUGCAUAGUAUAAAGUUA,0.0395 ± 0.0066
2,UGGACCUACAGCUUGCAUAGUUAAUACAAA,0.0147 ± 0.0064
3,UCCUGCUACAGGUUGCUUAGUAUUUAGUUA,1.08 ± 0.073
4,UGGACCUACUGCUUGCAUAGUAUUUAGAAA,0.14 ± 0.014
5,UCCUGGUUCAGCUUGCAUAGUAUUUACAAA,0.22 ± 0.048
6,AGGACGUACAGCUUGCAUAGUAUUUAGAUA,0.414 ± 0.05
7,UGGACCUACACCUUGCAUAGUUUUUAGUUA,0.245 ± 0.019
8,UCCACCUACAGCUUGCAUAGUAUUCUAGUUA,0.633 ± 0.067
9,AGGACCUACAGCUUGCAUAGUAUAUAGUAA,0.493 ± 0.058
10,AGGACCUACAGGUUGCAUUGUAUUUAGUUA,0.756 ± 0.043
11,UCCUGGAUCAGCUUGGAAAGUAUUUAGUUA,0.323 ± 0.026
12,UCCUGGAUGUCGAUGCAUAGUAUUAAGUUA,0.0045 ± 0.004
13,UCCUGGUACAGCUUGCAUACUAUUUUGUUA,0.107 ± 0.026
14,UGGACCUACUGCUUGGAUAGUAUUUAGUUA,1.65 ± 0.072
15,AGCUGCUACAGCUUGCAUAGUAUUUAGAAA,0.32 ± 0.068
16,UCCUGGUGCAGCUUGCAUAGUAUUUAGUUA,0.991 ± 0.046
17,UGGACCUACACCUUGCAUAGUAUUUAGAAA,0.42 ± 0.059
18,UCCUGGUACAGGAUGCAUAGUAUUUAGAAA,0.0179 ± 0.0065
19,UCCUGGUACAGCUUGCAUACUUUUUAGUUA,0.023 ± 0.0077
20,UCCUGGAUGUGCUUGCAUAGUAUUUAUGUUA,0.202 ± 0.026
21,UCCUGGAACAGCUUGCAUAGUAUAAAGUAA,0.36 ± 0.064
22,UCCUGGAACAGGCUUGCAUAGUAUUUAGUUA,0.756 ± 0.029

# Same assay, conditions: guide: L1MC piRNA 5'p-UAACUAAAUACUAUGCAAGCUGUAGGUCCU; auxiliary factor: none (no GTSF1)
row,Sequence,pre-steady-state target cleavage rate
1,UCCUGGAUGUGCUUGCAUAGUAUAAAGUUA,0.00918 ± 0.0031
2,UCCUGCUACAGGUUGCUUAGUAUUUAGUUA,0.0138 ± 0.0036
3,UGGACCUACUGCUUGCAUAGUAUUUAGAAA,0.0121 ± 0.0024
4,UCCUGGUUCAGCUUGCAUAGUAUUUACAAA,0.00541 ± 0.004
5,AGGACGUACAGCUUGCAUAGUAUUUAGAUA,0.0345 ± 0.0073
6,UGGACCUACACCUUGCAUAGUUUUUAGUUA,0.022 ± 0.0047
7,UCCACCUACAGCUUGCAUAGUAUUCUAGUUA,0.0214 ± 0.0052
8,AGGACCUACAGCUUGCAUAGUAUAUAGUAA,0.0216 ± 0.0048
9,AGGACCUACAGGUUGCAUUGUAUUUAGUUA,0.0327 ± 0.008
10,UCCUGGAUCAGCUUGGAAAGUAUUUAGUUA,0.00319 ± 0.0027
11,UCCUGGUACAGCUUGCAUACUAUUUUGUUA,0.0132 ± 0.005
12,UGGACCUACUGCUUGGAUAGUAUUUAGUUA,0.0542 ± 0.0088
13,AGCUGCUACAGCUUGCAUAGUAUUUAGAAA,0.00309 ± 0.0028
14,UCCUGGUGCAGCUUGCAUAGUAUUUAGUUA,0.0644 ± 0.012
15,UGGACCUACACCUUGCAUAGUAUUUAGAAA,0.0133 ± 0.0042
16,UCCUGGUACAGCUUGCAUACUUUUUAGUUA,0.00533 ± 0.0023
17,UCCUGGAUGUGCUUGCAUAGUAUUUAUGUUA,0.0215 ± 0.0052
18,UCCUGGAACAGCUUGCAUAGUAUAAAGUAA,0.00442 ± 0.0033
19,UCCUGGAACAGGCUUGCAUAGUAUUUAGUUA,0.0527 ± 0.01
